About 21,000 targets were measured; listed, in parts, are those with the largest changes and a random draw of the rest.
Compound: Cc1cc(ccc1-c1ccccc1)C(=O)N1CCCN(CC1)C(=O)CCl [compound 10]
Assay: probe-labelled cysteine peptide fold change vs DMSO (competition) (log2 fold change); higher = less target engagement (more negative = stronger competition)
Details: THP-1, incubation time: 4 h
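Also: competitive profiling in live THP-1 cells: cysteine peptides tagged with an iodoacetamide desthiobiotin (IA-DTB) probe, intensity after compound treatment relative to DMSO-treated cells.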

UniProt Q9UPN4, sequence (Q9UPN4 whole entry, looked up): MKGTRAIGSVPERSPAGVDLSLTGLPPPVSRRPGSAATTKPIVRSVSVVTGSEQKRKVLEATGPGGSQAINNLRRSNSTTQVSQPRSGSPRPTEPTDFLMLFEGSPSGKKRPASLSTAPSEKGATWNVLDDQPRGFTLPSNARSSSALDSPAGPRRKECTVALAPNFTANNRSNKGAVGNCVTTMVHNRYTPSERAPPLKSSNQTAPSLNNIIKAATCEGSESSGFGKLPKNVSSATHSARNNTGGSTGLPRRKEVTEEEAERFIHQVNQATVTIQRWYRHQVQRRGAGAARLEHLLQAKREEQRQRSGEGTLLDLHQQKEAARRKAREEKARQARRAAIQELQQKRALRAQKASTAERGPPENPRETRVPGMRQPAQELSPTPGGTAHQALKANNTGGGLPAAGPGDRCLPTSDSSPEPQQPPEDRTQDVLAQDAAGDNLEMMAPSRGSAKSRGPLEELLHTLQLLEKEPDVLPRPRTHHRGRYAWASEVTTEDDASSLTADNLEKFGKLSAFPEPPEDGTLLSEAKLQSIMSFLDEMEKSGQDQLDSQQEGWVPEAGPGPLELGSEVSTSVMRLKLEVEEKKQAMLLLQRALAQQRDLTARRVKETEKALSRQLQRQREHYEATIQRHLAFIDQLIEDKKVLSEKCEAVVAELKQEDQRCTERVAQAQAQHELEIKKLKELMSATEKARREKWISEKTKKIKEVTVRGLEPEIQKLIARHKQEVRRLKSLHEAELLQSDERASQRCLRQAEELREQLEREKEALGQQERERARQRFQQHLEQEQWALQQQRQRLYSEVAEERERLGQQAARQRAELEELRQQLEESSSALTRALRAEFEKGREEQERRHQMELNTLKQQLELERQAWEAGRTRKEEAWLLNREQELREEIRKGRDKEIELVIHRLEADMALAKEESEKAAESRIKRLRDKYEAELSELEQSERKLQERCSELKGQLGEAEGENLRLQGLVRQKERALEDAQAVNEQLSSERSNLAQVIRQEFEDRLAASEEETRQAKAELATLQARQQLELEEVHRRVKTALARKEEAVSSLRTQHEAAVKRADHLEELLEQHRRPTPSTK
UniProt Q99933, sequence (Q99933 whole entry, looked up): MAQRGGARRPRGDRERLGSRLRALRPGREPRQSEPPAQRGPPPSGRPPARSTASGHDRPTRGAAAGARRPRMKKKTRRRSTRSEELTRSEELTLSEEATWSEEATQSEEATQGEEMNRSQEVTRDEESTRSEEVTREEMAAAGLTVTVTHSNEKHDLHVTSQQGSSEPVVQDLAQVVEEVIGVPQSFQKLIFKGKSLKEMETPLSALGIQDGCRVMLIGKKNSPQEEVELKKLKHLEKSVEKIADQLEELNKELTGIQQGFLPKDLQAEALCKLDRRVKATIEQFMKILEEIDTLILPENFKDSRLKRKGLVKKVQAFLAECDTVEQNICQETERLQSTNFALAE
UniProt P53004, sequence (P53004 whole entry, looked up): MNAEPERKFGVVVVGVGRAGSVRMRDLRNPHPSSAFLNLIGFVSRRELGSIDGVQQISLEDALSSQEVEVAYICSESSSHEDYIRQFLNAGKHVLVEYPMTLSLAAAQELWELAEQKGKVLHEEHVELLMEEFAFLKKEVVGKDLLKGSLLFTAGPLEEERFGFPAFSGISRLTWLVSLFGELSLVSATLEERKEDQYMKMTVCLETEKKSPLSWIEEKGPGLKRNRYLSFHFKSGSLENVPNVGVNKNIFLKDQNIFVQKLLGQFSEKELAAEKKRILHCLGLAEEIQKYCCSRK
UniProt P20810, sequence (P20810 whole entry, looked up): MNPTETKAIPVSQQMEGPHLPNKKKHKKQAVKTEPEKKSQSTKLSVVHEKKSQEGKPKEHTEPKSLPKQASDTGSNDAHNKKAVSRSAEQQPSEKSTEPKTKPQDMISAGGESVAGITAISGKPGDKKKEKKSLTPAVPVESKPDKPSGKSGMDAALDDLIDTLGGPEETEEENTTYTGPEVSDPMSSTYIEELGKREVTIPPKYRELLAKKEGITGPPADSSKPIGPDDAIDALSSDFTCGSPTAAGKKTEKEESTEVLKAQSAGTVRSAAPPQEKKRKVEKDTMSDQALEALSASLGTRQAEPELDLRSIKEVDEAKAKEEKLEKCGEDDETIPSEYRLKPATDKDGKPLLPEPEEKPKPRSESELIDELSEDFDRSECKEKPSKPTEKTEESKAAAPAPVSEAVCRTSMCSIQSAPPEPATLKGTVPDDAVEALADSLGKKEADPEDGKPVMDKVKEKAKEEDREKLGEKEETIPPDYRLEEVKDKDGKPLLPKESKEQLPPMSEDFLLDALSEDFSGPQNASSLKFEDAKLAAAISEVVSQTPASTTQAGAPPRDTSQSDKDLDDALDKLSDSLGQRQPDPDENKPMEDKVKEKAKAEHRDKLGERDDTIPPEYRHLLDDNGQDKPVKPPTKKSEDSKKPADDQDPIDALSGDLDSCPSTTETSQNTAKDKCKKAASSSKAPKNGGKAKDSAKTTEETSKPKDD
UniProt Q00610, sequence (Q00610 whole entry, looked up): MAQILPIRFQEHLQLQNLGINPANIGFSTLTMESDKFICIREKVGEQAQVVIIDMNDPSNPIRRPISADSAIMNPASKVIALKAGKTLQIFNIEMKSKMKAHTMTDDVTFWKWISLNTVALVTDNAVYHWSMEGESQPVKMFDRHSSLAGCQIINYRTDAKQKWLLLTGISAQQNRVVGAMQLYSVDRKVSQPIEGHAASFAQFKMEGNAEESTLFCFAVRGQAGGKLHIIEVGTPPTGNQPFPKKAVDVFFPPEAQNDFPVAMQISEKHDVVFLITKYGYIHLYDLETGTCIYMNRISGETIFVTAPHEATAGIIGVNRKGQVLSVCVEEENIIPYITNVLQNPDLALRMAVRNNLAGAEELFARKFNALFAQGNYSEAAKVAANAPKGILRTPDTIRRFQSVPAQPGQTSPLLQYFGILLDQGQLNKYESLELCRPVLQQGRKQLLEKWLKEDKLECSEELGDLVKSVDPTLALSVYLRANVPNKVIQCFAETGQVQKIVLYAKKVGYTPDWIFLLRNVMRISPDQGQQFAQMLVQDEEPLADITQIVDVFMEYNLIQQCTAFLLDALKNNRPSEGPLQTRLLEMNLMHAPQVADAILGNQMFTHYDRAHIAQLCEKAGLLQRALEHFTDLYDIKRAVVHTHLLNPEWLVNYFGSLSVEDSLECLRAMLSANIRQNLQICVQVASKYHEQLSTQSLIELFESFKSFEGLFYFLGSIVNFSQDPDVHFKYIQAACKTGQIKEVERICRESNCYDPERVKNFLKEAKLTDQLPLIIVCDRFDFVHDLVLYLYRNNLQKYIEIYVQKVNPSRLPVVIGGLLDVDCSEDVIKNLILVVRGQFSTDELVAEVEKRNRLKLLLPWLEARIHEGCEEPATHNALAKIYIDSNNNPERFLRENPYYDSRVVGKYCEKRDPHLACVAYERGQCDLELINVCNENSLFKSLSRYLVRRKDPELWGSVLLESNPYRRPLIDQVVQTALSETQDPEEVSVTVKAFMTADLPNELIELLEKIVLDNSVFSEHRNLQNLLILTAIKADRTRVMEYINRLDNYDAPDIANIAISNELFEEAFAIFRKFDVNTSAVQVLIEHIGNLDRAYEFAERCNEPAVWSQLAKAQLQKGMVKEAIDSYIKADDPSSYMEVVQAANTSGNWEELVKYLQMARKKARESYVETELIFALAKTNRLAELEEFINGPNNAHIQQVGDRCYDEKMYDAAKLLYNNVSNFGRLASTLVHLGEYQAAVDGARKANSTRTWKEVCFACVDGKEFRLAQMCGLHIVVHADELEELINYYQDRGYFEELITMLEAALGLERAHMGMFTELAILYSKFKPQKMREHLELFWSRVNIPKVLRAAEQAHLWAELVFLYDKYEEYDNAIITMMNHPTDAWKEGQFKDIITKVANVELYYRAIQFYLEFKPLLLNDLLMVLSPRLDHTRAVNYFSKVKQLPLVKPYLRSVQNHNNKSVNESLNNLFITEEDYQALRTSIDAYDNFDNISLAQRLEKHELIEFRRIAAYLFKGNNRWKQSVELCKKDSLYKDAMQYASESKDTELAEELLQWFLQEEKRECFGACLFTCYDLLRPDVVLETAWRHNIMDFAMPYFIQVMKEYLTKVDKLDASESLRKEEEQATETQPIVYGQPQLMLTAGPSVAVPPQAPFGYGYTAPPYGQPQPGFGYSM
UniProt P19256, sequence (P19256 whole entry): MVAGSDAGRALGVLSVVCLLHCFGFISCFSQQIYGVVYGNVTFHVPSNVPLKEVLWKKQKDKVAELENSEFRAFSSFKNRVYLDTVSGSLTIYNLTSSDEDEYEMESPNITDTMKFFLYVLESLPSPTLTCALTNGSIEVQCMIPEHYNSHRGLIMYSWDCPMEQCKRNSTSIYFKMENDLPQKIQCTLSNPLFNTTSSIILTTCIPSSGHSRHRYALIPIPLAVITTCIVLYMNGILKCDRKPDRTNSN
UniProt Q9NXV6, sequence (Q9NXV6 whole entry, looked up): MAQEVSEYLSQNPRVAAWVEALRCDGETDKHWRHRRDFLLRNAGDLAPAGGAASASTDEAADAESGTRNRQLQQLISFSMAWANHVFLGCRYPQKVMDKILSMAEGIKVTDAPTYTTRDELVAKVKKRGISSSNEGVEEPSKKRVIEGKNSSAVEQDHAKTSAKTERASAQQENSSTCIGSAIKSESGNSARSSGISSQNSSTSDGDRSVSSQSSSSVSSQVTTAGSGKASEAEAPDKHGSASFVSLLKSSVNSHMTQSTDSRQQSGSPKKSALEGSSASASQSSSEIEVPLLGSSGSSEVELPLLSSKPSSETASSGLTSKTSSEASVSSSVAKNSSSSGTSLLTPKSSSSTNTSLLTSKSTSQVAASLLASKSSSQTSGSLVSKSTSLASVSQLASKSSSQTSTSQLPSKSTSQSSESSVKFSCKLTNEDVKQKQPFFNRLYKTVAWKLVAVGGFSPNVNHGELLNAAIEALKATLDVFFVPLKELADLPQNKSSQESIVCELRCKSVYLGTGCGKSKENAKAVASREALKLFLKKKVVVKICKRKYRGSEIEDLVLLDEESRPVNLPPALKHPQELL

Target	probe-labelled cysteine peptide fold change (10 µM)	probe-labelled cysteine peptide fold change (50 µM)
CCT8_P50990_347_LTPPVLEEMGHCDSVYLSEVGDTQVVVFKHEK (UniProt P50990)	-0.15	-0.323
CAD_P27708_484_NERPDGVLLTFGGQTALNCGVELTK (UniProt P27708)	0.0927	0.138
BRAT1_Q6PJG6_54_TVTEGESSVVLLQEHPCLVELLSHVLK (UniProt Q6PJG6)	-0.343	-1.29
BRD7_Q9NPI1_646_KTDVAECGPGGS (UniProt Q9NPI1)	-0.0685	0.146
BAX_Q07812_62_KLSECLK (UniProt Q07812)	0.0763	0.209
CC2D1B_Q5T0F9_86_LAADCMR (UniProt Q5T0F9)	-0.00506	-0.411
BAG1_Q99933_330_KVQAFLAECDTVEQNICQETER (UniProt Q99933)	-0.133	-0.168
CCT8_P50990_148+149_AHEILPNLVCCSAK (UniProt P50990)	0.158	-1.06
BRD1_O95696_729_ELLDMLDLTCAMK (UniProt O95696)	-0.0322	0.146
CLASP1_Q7Z460_864_QTEDVAEVLNHCASSNWSER (UniProt Q7Z460)	0.592	0.131
CD58_P19256_161+166_GLIMYSWDCPMEQCK (UniProt P19256)	-0.0112	-0.0875
CCT4_P50991_120_AQDIEAGDGTTSVVIIAGSLLDSCTK (UniProt P50991)	0.173	0.244
BCL7C_Q8WUZ0_211_RICPNAPDP (UniProt Q8WUZ0)	0.0814	-0.667
CAD_P27708_1374_VTAVDWHFEEAVDGECPPQR (UniProt P27708)	-0.246	-1.09
BPNT1_O95861_243_ASAYVFASPGCK (UniProt O95861)	-0.327	0.0815
CLTC_Q00610_328_KGQVLSVCVEEENIIPYITNVLQNPDLALR (UniProt Q00610)	0.243	1.15
CDC16_Q13042_46_EEPQDIYWLAQCLYLTAQYHR (UniProt Q13042)	0.0943	1.25
CEP131_Q9UPN4_648_CEAVVAELK (UniProt Q9UPN4)	0.0263	-0.274
CAST_P20810_328_CGEDDETIPSEYR (UniProt P20810)	-0.0978	-0.058
BRAT1_Q6PJG6_673_THCPYAVALPEVAPAQPLTEALR (UniProt Q6PJG6)	-0.481	-1.07
CDKN2AIP_Q9NXV6_24_CDGETDK (UniProt Q9NXV6)	-0.0778	-0.163
BLVRA_P53004_281_RILHCLGLAEEIQK (UniProt P53004)	0.0103	0.216
BARGIN_Q6ZT62_64_LQACLQGQSGADMDKR<|>SH3BP1_Q9Y3L3_56_LQACLQGQSGADMDKR (UniProt Q9Y3L3+Q6ZT62)	-0.0791	-0.0804
CKAP5_Q14008_637_AVELMDRTEMPCQALVR (UniProt Q14008)	-0.107	-0.426

— the supplement of paper PMC12067093, “Discovery and optimisation of a covalent ligand for TRIM25 and its application to targeted protein ubiquitination” (Chemical Science, 2025)
